According to a compilation of properties of binary mixtures (doi:10.1016/j.molliq.2017.08.088):
The densities may have been worked out from excess volumes.

Test: xn = mol fraction of the nth substance listed
Details: 101 kPa

In the case of `CN(CCO)CCO` + CCCC[n+]1ccn(C)c1.F[B-](F)(F)F, the mass density (293.15 K, x2 = 0.1002) is reported as 1066.2 kg/m3, the mass density (293.15 K, x2 = 0.1974) is reported as 1087.5 kg/m3 and the mass density (293.15 K, x2 = 0.3) is reported as 1107.6 kg/m3. For the same compound, the mass density (293.15 K, x2 = 0.4001) was 1125.1 kg/m3, the mass density (293.15 K, x2 = 0.4998) was 1141 kg/m3 and the mass density (293.15 K, x2 = 0.6) was 1155.6 kg/m3. For the same compound, the mass density (293.15 K, x2 = 0.6997) was 1169.1 kg/m3, the mass density (293.15 K, x2 = 0.7998) was 1181.7 kg/m3 and the mass density (303.15 K, x2 = 0.1002) was 1058.5 kg/m3. For the same compound, the mass density (303.15 K, x2 = 0.1974) was 1079.9 kg/m3, the mass density (303.15 K, x2 = 0.4001) was 1117.5 kg/m3 and the mass density (303.15 K, x2 = 0.4998) was 1133.4 kg/m3. For the same compound, the mass density (303.15 K, x2 = 0.6) was 1148.1 kg/m3, the mass density (303.15 K, x2 = 0.6997) was 1161.7 kg/m3 and the mass density (303.15 K, x2 = 0.7998) was 1174.4 kg/m3. It also gave a mass density (313.15 K, x2 = 0.1002) of 1050.7 kg/m3, a mass density (313.15 K, x2 = 0.1974) of 1072.1 kg/m3 and a mass density (313.15 K, x2 = 0.3) of 1092.3 kg/m3. It also gave a mass density (313.15 K, x2 = 0.4001) of 1109.9 kg/m3, a mass density (313.15 K, x2 = 0.4998) of 1125.9 kg/m3 and a mass density (313.15 K, x2 = 0.6) of 1140.6 kg/m3. The mass density (313.15 K, x2 = 0.6997) was 1154.2 kg/m3, the mass density (313.15 K, x2 = 0.7998) was 1167 kg/m3 and the mass density (313.15 K, x2 = 0.8999) was 1179.2 kg/m3. The mass density (323.15 K, x2 = 0.1002) was 1043.1 kg/m3, the mass density (323.15 K, x2 = 0.3) was 1084.7 kg/m3 and the mass density (323.15 K, x2 = 0.4001) was 1102.4 kg/m3. For the same compound, the mass density (323.15 K, x2 = 0.4998) was 1118.4 kg/m3, the mass density (323.15 K, x2 = 0.6997) was 1146.8 kg/m3 and the mass density (323.15 K, x2 = 0.7998) was 1159.6 kg/m3. The mass density (323.15 K, x2 = 0.8999) was 1172 kg/m3, the mass density (333.15 K, x2 = 0.1002) was 1035.5 kg/m3 and the mass density (333.15 K, x2 = 0.3) was 1077.1 kg/m3. The mass density (333.15 K, x2 = 0.4001) was 1094.9 kg/m3, the mass density (333.15 K, x2 = 0.4998) was 1111 kg/m3 and the mass density (333.15 K, x2 = 0.6) was 1125.8 kg/m3. The mass density (333.15 K, x2 = 0.6997) was 1139.5 kg/m3 and the mass density (333.15 K, x2 = 0.8999) was 1165.1 kg/m3.
